The list shows a part of the results. Read counts after selection give these values, which scatter widely.
These sequences were tested against T1, Drosophila AGO2 (FLAG-tagged, S2-R+ lysate) (UniProt Q9VUQ5) (assay: AGO2 loading enrichment factor (IP read count / input read count, not library-size normalised) (ratio); higher = more efficient loading into AGO2). Conditions: randomized region: 5' 5N of miR-317 loop.
T1 sequence: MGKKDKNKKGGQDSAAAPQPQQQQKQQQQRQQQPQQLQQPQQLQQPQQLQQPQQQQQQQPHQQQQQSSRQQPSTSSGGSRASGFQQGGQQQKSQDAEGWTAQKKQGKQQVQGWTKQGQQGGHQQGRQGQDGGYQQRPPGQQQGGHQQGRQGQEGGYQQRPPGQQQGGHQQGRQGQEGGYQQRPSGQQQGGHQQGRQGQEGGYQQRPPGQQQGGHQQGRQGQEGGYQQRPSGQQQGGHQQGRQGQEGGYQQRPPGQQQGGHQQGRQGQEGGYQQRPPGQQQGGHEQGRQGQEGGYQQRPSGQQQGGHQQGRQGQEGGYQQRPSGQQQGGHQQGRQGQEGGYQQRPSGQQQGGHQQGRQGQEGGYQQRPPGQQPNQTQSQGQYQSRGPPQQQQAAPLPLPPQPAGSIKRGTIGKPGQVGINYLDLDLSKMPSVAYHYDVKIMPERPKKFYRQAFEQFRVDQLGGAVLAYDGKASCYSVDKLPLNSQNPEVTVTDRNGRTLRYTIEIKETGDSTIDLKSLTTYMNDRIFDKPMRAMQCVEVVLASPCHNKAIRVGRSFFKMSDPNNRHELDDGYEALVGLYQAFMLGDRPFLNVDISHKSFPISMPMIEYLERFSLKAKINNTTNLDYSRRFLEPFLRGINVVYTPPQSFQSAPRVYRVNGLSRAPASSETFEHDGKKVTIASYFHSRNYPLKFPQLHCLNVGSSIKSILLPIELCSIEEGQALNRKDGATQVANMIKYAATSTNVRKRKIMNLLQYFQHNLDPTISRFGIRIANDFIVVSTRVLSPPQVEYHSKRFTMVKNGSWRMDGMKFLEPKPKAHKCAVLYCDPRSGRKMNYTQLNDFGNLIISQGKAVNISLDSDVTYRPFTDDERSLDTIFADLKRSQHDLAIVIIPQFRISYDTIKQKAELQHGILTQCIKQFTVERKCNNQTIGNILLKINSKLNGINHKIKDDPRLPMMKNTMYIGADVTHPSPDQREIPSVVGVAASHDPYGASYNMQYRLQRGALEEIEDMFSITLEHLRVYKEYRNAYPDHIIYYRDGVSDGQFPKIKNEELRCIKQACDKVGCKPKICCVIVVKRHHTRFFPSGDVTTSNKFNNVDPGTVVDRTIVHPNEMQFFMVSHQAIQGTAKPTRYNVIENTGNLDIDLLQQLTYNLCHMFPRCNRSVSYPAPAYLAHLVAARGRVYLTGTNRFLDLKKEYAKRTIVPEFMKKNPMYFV
Description: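 HISSA: 5'-phosphorylated, 32P-labelled 20-nt ssRNA oligos (miR-317 loop, first 5 nt randomized, constant 3' part TGAAATGCAAGCAAG as printed in methods; DNA letters for RNA) incubated 1 h at 25°C in lysate of S2-R+ cells expressing FLAG-AGO2. FLAG-AGO2 was immunopurified and bound oligos were sequenced after splinted ligation. Enrichment factor = IP read count / input read count (raw counts, not library-size normalised); single library, no replicates.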
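Further: Per-sequence enrichment computed with FASTAptamer, counting only reads that carry the expected constant 3′ region.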

| Sequence | AGO2 loading enrichment factor |
| --- | --- |
| GTCTGTGAAATGCAAGCAAG | 0.293 |
| TCCCGTGAAATGCAAGCAAG | 0.819 |
| CGTTTTGAAATGCAAGCAAG | 0.29 |
| CTATCTGAAATGCAAGCAAG | 0.537 |
| ATCCATGAAATGCAAGCAAG | 0.314 |
| CTCACTGAAATGCAAGCAAG | 0.326 |
| CTAGTTGAAATGCAAGCAAG | 0.236 |
| AAACGTGAAATGCAAGCAAG | 0.33 |
| GGACTTGAAATGCAAGCAAG | 0.151 |
| TACACTGAAATGCAAGCAAG | 0.412 |
| ATAGATGAAATGCAAGCAAG | 0.428 |
| ACGCCTGAAATGCAAGCAAG | 0.251 |
| CGGATTGAAATGCAAGCAAG | 0.538 |
| CTTGATGAAATGCAAGCAAG | 0.0333 |
| TAAGATGAAATGCAAGCAAG | 0.39 |
| ATACGTGAAATGCAAGCAAG | 0.451 |
| GAGACTGAAATGCAAGCAAG | 0.458 |
| TTAGTTGAAATGCAAGCAAG | 0.46 |
| CGCGATGAAATGCAAGCAAG | 0.369 |
| TGGGCTGAAATGCAAGCAAG | 0.322 |
| TGGCCTGAAATGCAAGCAAG | 0.493 |
| CAAAATGAAATGCAAGCAAG | 0.359 |
| ACGCGTGAAATGCAAGCAAG | 0.345 |
| TAGTTTGAAATGCAAGCAAG | 0.122 |
| CTTTATGAAATGCAAGCAAG | 0.28 |

| Sequence | AGO2 loading enrichment factor |
| --- | --- |
| GTTTGTGAAATGCAAGCAAG | 0.0838 |
| CTCGTTGAAATGCAAGCAAG | 0.137 |
| TGGAGTGAAATGCAAGCAAG | 1.65 |
| CGTTCTGAAATGCAAGCAAG | 0.427 |
| GGGACTGAAATGCAAGCAAG | 2.24 |
| TAGGATGAAATGCAAGCAAG | 0.829 |
| TATGCTGAAATGCAAGCAAG | 0.115 |
| TTCCATGAAATGCAAGCAAG | 0.467 |
| TTAGATGAAATGCAAGCAAG | 0.428 |
| TGCCGTGAAATGCAAGCAAG | 0.256 |
| CGCTCTGAAATGCAAGCAAG | 0.4 |
| TGACATGAAATGCAAGCAAG | 0.399 |
| TAGCGTGAAATGCAAGCAAG | 0.318 |
| AGCACTGAAATGCAAGCAAG | 0.246 |
| GGCCCTGAAATGCAAGCAAG | 1.06 |
| GGGTATGAAATGCAAGCAAG | 1.24 |
| GCACGTGAAATGCAAGCAAG | 0.115 |
| AATGCTGAAATGCAAGCAAG | 0.0351 |
| CGACCTGAAATGCAAGCAAG | 0.44 |
| CTAACTGAAATGCAAGCAAG | 0.401 |
| CGTGGTGAAATGCAAGCAAG | 1.04 |
| AGAGGTGAAATGCAAGCAAG | 1.77 |
| GTTCTTGAAATGCAAGCAAG | 0.313 |
| ATGGCTGAAATGCAAGCAAG | 0.175 |
| GTTGCTGAAATGCAAGCAAG | 0.49 |

| Sequence | AGO2 loading enrichment factor |
| --- | --- |
| TGTACTGAAATGCAAGCAAG | 0.245 |
| GTAGCTGAAATGCAAGCAAG | 0.186 |
| TGCTCTGAAATGCAAGCAAG | 0.0919 |
| GCTCGTGAAATGCAAGCAAG | 0.0725 |
| TGTAATGAAATGCAAGCAAG | 0.361 |
| GCTAGTGAAATGCAAGCAAG | 0.0147 |
| AGCGGTGAAATGCAAGCAAG | 0.34 |
| TCTATTGAAATGCAAGCAAG | 0.462 |
| AATTTTGAAATGCAAGCAAG | 0.346 |
| TCATATGAAATGCAAGCAAG | 0.464 |
| AGTCTTGAAATGCAAGCAAG | 0.0682 |
| TGGGATGAAATGCAAGCAAG | 2.84 |
| ACTAGTGAAATGCAAGCAAG | 0.264 |
| CGCTTTGAAATGCAAGCAAG | 0.431 |
| GCTGATGAAATGCAAGCAAG | 0.107 |
| AACTATGAAATGCAAGCAAG | 0.378 |
| TGCTTTGAAATGCAAGCAAG | 0.101 |
| CCGACTGAAATGCAAGCAAG | 0.685 |
| CATCATGAAATGCAAGCAAG | 0.329 |
| GAACGTGAAATGCAAGCAAG | 0.385 |
| AACAATGAAATGCAAGCAAG | 0.381 |
| TGCCATGAAATGCAAGCAAG | 0.382 |
| TTTGTTGAAATGCAAGCAAG | 1.09 |
| TTCACTGAAATGCAAGCAAG | 0.362 |
| TCCGATGAAATGCAAGCAAG | 0.37 |

| Sequence | AGO2 loading enrichment factor |
| --- | --- |
| ATTCATGAAATGCAAGCAAG | 0.459 |
| TGTCGTGAAATGCAAGCAAG | 0.539 |
| TTATGTGAAATGCAAGCAAG | 0.508 |
| GAAAATGAAATGCAAGCAAG | 0.465 |
| ATTTCTGAAATGCAAGCAAG | 0.424 |
| AACCGTGAAATGCAAGCAAG | 0.313 |
| TAAAATGAAATGCAAGCAAG | 0.458 |
| TGTCCTGAAATGCAAGCAAG | 0.408 |
| GTGTCTGAAATGCAAGCAAG | 0.521 |
| TATTTTGAAATGCAAGCAAG | 0.455 |
| CTCGGTGAAATGCAAGCAAG | 0.674 |
| CCTCGTGAAATGCAAGCAAG | 0.297 |
| GCTGTTGAAATGCAAGCAAG | 0.0862 |
| TAACCTGAAATGCAAGCAAG | 0.476 |
| GCGGATGAAATGCAAGCAAG | 0.469 |
| ACTTCTGAAATGCAAGCAAG | 0.221 |
| GGAATTGAAATGCAAGCAAG | 0.542 |
| AAAGATGAAATGCAAGCAAG | 0.364 |
| CGGGGTGAAATGCAAGCAAG | 6.89 |
| ACGAATGAAATGCAAGCAAG | 0.492 |
| CAGCCTGAAATGCAAGCAAG | 0.231 |
| CACTCTGAAATGCAAGCAAG | 0.261 |
| TTTCTTGAAATGCAAGCAAG | 0.583 |
| TAATGTGAAATGCAAGCAAG | 0.271 |
